# Paper PMC4336329 (PLoS ONE, 2015)
# About 2,200 (0.71%) of roughly 310,000 compounds showed an effect of 50% or more. Effects have a minus sign here. Some of the results follow.
# Target: human ether-à-go-go-related gene (hERG) potassium channel (human, UniProt Q12809)
# Assay: primary screen, population patch clamp on CHO cells stably expressing hERG
# Sequence of human ether-à-go-go-related gene (hERG) potassium channel (Q12809 whole entry, looked up): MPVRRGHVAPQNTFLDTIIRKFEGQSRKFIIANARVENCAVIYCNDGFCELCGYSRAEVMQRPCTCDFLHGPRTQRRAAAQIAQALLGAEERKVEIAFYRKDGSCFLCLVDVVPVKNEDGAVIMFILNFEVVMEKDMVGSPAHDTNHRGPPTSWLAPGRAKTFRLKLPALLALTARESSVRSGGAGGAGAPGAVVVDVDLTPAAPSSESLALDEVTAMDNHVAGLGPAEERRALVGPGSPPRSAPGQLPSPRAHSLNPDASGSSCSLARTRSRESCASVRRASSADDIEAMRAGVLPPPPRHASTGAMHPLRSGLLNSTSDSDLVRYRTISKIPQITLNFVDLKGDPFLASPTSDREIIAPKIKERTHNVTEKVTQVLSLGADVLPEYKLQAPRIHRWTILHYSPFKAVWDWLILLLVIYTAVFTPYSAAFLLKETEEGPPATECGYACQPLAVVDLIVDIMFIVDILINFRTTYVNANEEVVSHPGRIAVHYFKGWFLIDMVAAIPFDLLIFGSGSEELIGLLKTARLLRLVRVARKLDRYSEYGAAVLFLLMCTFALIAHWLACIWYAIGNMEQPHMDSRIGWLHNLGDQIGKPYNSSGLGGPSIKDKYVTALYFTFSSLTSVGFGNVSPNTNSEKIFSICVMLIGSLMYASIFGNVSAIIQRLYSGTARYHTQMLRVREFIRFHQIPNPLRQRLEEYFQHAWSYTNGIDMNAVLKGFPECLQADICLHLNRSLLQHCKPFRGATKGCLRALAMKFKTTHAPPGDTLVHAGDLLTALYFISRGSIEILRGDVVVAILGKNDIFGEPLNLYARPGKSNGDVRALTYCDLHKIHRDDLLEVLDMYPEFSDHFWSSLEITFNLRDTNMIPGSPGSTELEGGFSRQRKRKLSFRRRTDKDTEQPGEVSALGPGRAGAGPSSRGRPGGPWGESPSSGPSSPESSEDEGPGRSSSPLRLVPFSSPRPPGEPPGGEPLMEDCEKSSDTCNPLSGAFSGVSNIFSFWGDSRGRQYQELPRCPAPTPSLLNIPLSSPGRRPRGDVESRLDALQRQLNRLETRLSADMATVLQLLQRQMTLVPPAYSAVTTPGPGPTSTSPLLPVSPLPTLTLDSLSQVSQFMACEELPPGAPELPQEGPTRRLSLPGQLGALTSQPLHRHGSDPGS
row,Structure (SMILES),"hERG current change (%, negative = inhibition) at 1uM"
1,O=C(CC1SC(=Nc2ccccc2)N(CCc2ccccn2)C1=O)Nc1ccc(F)cc1 (stereo not drawn),4.98%
2,COc1cccc(CNC(=O)Cn2ncn3cccc3c2=O)c1OC,8.95%
3,COc1ccc(-c2csc(N(CCCN(C)C)C(=O)c3ccc(Br)cc3)n2)cc1.O=C(O)C(=O)O,-1.62%
4,CN(C)C(=O)c1ccc(NC(=O)COC(=O)Cn2cc(C(F)(F)F)ccc2=O)cc1,2.08%
5,O=C(NC1C=CS(=O)(=O)C1)c1sc2ccccc2c1Cl (stereo not drawn),-5.87%
6,Cc1c(Cl)c([N+](=O)[O-])nn1CC(=O)NC1CCCCC1,10.8%
7,Cn1c(=O)c2c(n3cnnc13)-c1ccccc1CC21CCCC1,6.55%
8,Cc1nn(C)cc1CN(C)C(=O)c1cc2nc(-c3ccco3)cc(C(F)(F)F)n2n1,5.78%
9,CCCCOc1ccc(N2C(=O)CC(NCCc3ccc(S(N)(=O)=O)cc3)C2=O)cc1 (stereo not drawn),0.222%
10,N=c1ncn(CC(O)CO)c2nc(N3CCOCC3)[nH]c12 (stereo not drawn),13.2%
11,CSCCC(NS(=O)(=O)c1ccc(Cl)cc1)C(=O)OCC(=O)NC1CCCCC1 (stereo not drawn),3.69%
12,CCc1cccc(CC)c1NC(=O)CN1CCN(S(=O)(=O)c2ccccc2)CC1,11.6%
13,OC(CNCc1ccccc1)(c1ccccc1)c1ccccc1,5.98%
14,O=C(Nc1ccc(S(=O)(=O)N2CCCCCC2)cc1)c1ccc(Br)o1,0.819%
15,Cc1ccc(NC(=O)c2ccn(C(=O)Nc3ccccc3)n2)c(C)c1,13.9%
16,O=C1C=C(O)C(n2cncn2)C(c2ccc3c(c2)OCO3)C1 (stereo not drawn),7.13%
17,COc1ccc(CNC(=O)c2coc(=O)c3ccccc23)cc1,-5.65%
18,O=C(NCc1ccco1)c1cnc2n(c1=O)CCS2,0.498%
19,O=S(=O)(NCCCCCCNS(=O)(=O)c1c(F)cccc1F)c1ccc2c(c1)OCCO2,11.9%
20,CC(C)Oc1ccc(C(CC(=O)N(C)CCC#N)c2ccc(F)cc2)cc1 (stereo not drawn),-1.64%
21,C/C(=N\NS(=O)(=O)c1ccc(Cl)c([N+](=O)[O-])c1)c1cc2ccccc2o1,11.4%
22,Cn1nccc1C(=O)Nc1sc2c(c1C(N)=O)CCCC2,1.14%
23,O=C(NCc1ccncc1)Nc1ccc(F)cc1,16.5%

row,Structure (SMILES),"hERG current change (%, negative = inhibition) at 1uM"
1,CC(=C\c1ccccc1)/C=C1/SC(=S)N(CCC(=O)O)C1=O,14%
2,CCc1ccccc1NC(=O)N[C@H](C(=O)O)C(C)CC (stereo partly drawn),-4.75%
3,CCc1ccc2nc(N)sc2c1,12.2%
4,CN(C(=O)c1ccc(S(=O)(=O)NC2CCCC2)cc1)C1CCCCC1,3.65%
5,Cc1ccc(C(=O)Nc2cccc(S(=O)(=O)N(C)c3ccccc3)c2)o1,-3.77%
6,CCOC(=O)CS(=O)(=O)c1nc(-c2ccccc2)cc(C(F)(F)F)n1,2.35%
7,C=CCOC(=O)C1=C(C)NC(SCC(=O)Nc2ccccc2)=C(C#N)C1c1ccco1 (stereo not drawn),11.6%
8,CS(=O)(=O)N(CC(=O)NC1CCCC1)Cc1ccc(Cl)cc1,-2.87%
9,CC1=C/C(=N\Nc2ccccc2[N+](=O)[O-])CC(C)(C)C1,1.17%
10,CCn1c2ccc(C)cc2c2nnc(SCCN3CCOCC3)nc21,4.8%
11,Cn1nc2sc3ccccc3n2c(=O)c1=O,14.5%
12,CSCCC(NC(=O)c1ccco1)C(=O)NCC(C)(C)N1CCOCC1 (stereo not drawn),7.73%
13,Cc1ccc(NC(=O)COC(=O)C2=COCCO2)c([N+](=O)[O-])c1,16.9%
14,COc1cccc(-n2c(Cn3nc(C(F)(F)F)cc3C)n[nH]c2=S)c1,9.46%
15,CC1(C)CC(NC(=O)c2cccc(S(=O)(=O)Nc3cccc(Cl)c3)c2)CC(C)(C)N1,9.92%
16,O/N=C/c1cc(Cl)ccc1OCc1cccc2ccccc12,1.24%
17,Fc1ccccc1CNc1ncnc2sccc12,12.6%
18,Cn1c(=O)n(Cc2ccc(F)cc2)c(=O)c2c1nc1n2CCCN1C1CCCCC1,11.5%
19,COC(=O)CCC(=O)Nc1cccc([N+](=O)[O-])c1,13.9%
20,O=C(CSc1ccccc1)NC1CCCCCC1,-12.3%
21,Cc1cc(C(=O)Nc2ccc(N3CCCC3)c(Cl)c2)ccc1[N+](=O)[O-],6.29%
22,COc1cc(-c2nnc3sc(-c4ccco4)nn23)cc(OC)c1OC,4.14%
23,CCCCOc1ccc(/C(N)=N/O)cc1,3.05%

row,Structure (SMILES),"hERG current change (%, negative = inhibition) at 1uM"
1,CCOc1ccc(NC(=O)c2c(NC(=O)CN3CCN(C)CC3)sc3c2CCC3)cc1,-28.2%
2,O=C(Nc1ccnn1C1CCN(Cc2cccc(O)c2)CC1)C1CCCC1,-14.2%
3,O=C(COC(=O)CCc1ccc(S(=O)(=O)N2CCOCC2)cc1)NC(=O)NC1CCCCC1,10.2%
4,CSc1cccc(NC(=S)Nc2ccc(F)cc2)c1,11.6%
5,Cc1ccc(C(=O)CN(C(=O)c2ccc(Cl)c(Cl)c2)N2C(=O)C3C4C=CC(C4)C3C2=O)cc1 (stereo not drawn),12.5%
6,COc1cc(OC)cc(C(=O)Nn2cc(C(=O)Nc3ccccc3F)c3ccccc3c2=O)c1,-5.09%
7,CCCCN(C(=O)CC1OC(=O)c2ccccc21)c1c(N)n(CCCC)c(=O)[nH]c1=O (stereo not drawn),15.5%
8,O=C(Nc1ccc(S(=O)(=O)N2CCCCC2)cc1)c1cccnc1Cl,17.1%
9,O=C(c1ccccc1)N1CCN(Cc2c[nH]c3ccccc23)CC1,-1.02%
10,O=C1CCCN1CCCNc1ncnc2sccc12,3.95%
11,Cn1nc(C(=O)NCc2ccccn2)c2ccccc2c1=O,4.74%
12,CCOc1ccc(C(=O)NCC(=O)NCC(c2cccs2)N2CCOCC2)cc1 (stereo not drawn),15.2%
13,CCN(CC)C1=NC=CC(c2ccccc2)=CC1C (stereo not drawn),-34%
14,CCOC(=O)N1CCN(C(=O)c2ccc(C)c(S(=O)(=O)Nc3ccccc3)c2)CC1,17%
15,COc1ccccc1CNS(=O)(=O)c1ccc2c(c1)N(C(C)=O)CC(C)S2 (stereo not drawn),11%
16,CCOC(=O)C1=C(C)NC(=O)NC1c1ccco1 (stereo not drawn),8.11%
17,CCCN1CCN(S(=O)(=O)c2ccc3c(c2)CC(C)N3C(=O)C2CC2)CC1 (stereo not drawn),16.3%
18,CCOC(=O)c1ccc(N2CC(O)=C(c3nc4ccccc4c(=O)[nH]3)C2=N)cc1,3.34%
19,N=c1c2c(ncn1CCN1CCOCC1)Oc1cc(O)ccc1C2c1ccccc1 (stereo not drawn),-5.86%
20,CCC(C)C(=O)NCCc1ccc(S(N)(=O)=O)cc1 (stereo not drawn),12%
21,COC(=O)[C@@H](NC(=O)Nc1cccc(OC)c1)C(C)C,7.64%
22,CCCc1cc(C(=O)Nc2cc(C)nn2-c2ccccc2)no1,9.97%
23,Cc1oc2ccc(O)cc2c1C(=O)c1ccc(F)cc1,5.44%

row,Structure (SMILES),"hERG current change (%, negative = inhibition) at 1uM"
1,O=C(COc1ccc(Cl)cc1)NNC(=O)c1ccc2c(=O)n3c(nc2c1)CCC3,-1.63%
2,O=C(Nc1ccc(-n2cnnn2)cc1)C(c1ccccc1)c1ccccc1,5.11%
3,Cc1ccc(-n2nnnc2SCC(=O)N2CCN(C(=O)c3ccco3)CC2)c(C)c1,-38.8%
4,NS(=O)(=O)c1cccc(NC(=O)c2cccs2)c1,19%
5,Cc1nc2ccccn2c1C(=O)CSc1ccccc1Cl,-2.69%
6,CCCCn1cnc2cc(NCc3ccncc3)ccc21,9.76%
7,CN(C)CCNC(=O)c1ccc(COCC(F)(F)F)cc1,7.92%
8,O=C(O)c1ccc2c(=O)n3c(nc2c1)/C(=C/c1ccc(Cl)cc1Cl)CC3,8.65%
9,Cc1ccc(NC(=O)C2CCN(S(=O)(=O)c3ccc(N4CCCC4=O)cc3)CC2)cc1Cl,16.6%
10,O=C(CSCCc1ccccn1)Nc1ccccn1,6.12%
11,CCN1C(=O)N[C@@H](c2ccco2)C(C(=O)OC)=C1C,17.4%
12,CC1(C)CC(=O)C(C=NCCN2CCN(C(=O)Cc3ccc(Cl)cc3)CC2)=C(O)C1,-19.6%
13,Cc1cccc(-n2c(SCC(=O)NCC3CCCO3)nc3ccccc3c2=O)c1C (stereo not drawn),0.772%
14,CC(=O)c1ccc2noc(-c3ccc(Cl)cc3)c2c1,11%
15,CCOC(=O)C1CCN(C/C=C/c2ccccc2OC)CC1,-0.831%
16,COc1ccc(Cn2c(-c3ccco3)nc3oc4cc(OC)ccc4c(=O)c3c2=O)cc1,-40.5%
17,CCOC(=O)CC1C(=O)NCCN1C(=O)NC1CCCCC1 (stereo not drawn),7.87%
18,CC(C)CC1NC(=O)c2ccccc2-n2c1nc1cc(F)ccc1c2=O (stereo not drawn),5.49%
19,Cn1ccnc1CC(O)(c1ccccc1)c1ccccc1,2.99%
20,CCOc1cc(/C=C2/C(=O)NN(c3cccc(Cl)c3)C2=O)ccc1O,11.6%
21,CC(C)OCCCNC(=O)c1cc(S(=O)(=O)N2CCCCC2)c[nH]1,8.79%
